{
  "source": "PubChem BioAssay AID2147",
  "about": "(National Center for Advancing Translational Sciences (NCATS), 2009)",
  "note": "The campaign covered roughly 230,000 compounds. About 3,600 (1.6%) were called active. Inconclusive results, whose numbers are uncertain, are shown with a selection of clear calls. The call rests on the fitted dose curve; in most records, active means well fitted inhibition curve with a large enough effect (not every such curve was filed as active); inconclusive means small, poorly fitted or top-dose-only effect, or another doubt; inactive means no such curve, though single readings can be large or run the other way. Potencies of inconclusive entries are doubtful fits and often do not repeat. Further: nearly all actives have a fitted effect of over 50% in size. Potency means the concentration at half of the fitted maximal effect; tags describe the fitted curve by direction and shape.",
  "data": [
    {"biological_target": "Lysine-specific demethylase 4E (Homo sapiens) (UniProt B2RXH2)", "sequence (B2RXH2 whole entry, looked up, the tested form may be a part)": "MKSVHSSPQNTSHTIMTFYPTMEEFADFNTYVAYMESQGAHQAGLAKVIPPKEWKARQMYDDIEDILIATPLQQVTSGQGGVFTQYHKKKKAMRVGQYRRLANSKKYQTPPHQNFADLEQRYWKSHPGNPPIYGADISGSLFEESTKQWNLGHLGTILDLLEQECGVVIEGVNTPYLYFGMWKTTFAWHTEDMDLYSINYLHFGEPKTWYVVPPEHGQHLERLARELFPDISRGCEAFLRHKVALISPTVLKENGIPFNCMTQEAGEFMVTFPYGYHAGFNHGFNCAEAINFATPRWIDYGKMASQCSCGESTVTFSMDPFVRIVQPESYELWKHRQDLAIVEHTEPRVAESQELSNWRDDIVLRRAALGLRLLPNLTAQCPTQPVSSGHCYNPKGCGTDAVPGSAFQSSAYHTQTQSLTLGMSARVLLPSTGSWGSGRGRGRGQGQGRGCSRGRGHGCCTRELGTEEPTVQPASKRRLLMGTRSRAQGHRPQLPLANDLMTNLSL", "assay": "qHTS Assay for Inhibitors of Human Jumonji Domain Containing 2E (JMJD2E)", "conditions": "JMJD2E catalytic domain, FDH-coupled NADH fluorescence (FDH is formaldehyde dehydrogenase); series mostly up to 57.1 µM", "values": [
      {"smiles": "N#Cc1ccc(-c2ccccc2)nc1SCC(=O)c1cc2ccccc2oc1=O", "Potency": "inconclusive: 39.8 µM [inhibitor, single point]"},
      {"smiles": "COc1ccc(/C=C/C(=O)c2cccs2)c(OC)c1", "Potency": "inconclusive: 25.1 µM [inhibitor, partial curve]"},
      {"smiles": "O=C(Nc1nccs1)c1cn(-c2ccccc2)nc1-c1ccncc1", "Potency": "inconclusive: 35.5 µM [inhibitor, single point]"},
      {"smiles": "Cc1[nH]nc2c1/C(=N/O)CC(c1ccccc1)C2", "note": "(stereo unspecified)", "Potency": "inactive"},
      {"smiles": "COc1cc2c(C(=O)N3CCN(C4CCCCC4)CC3)cn(CC(C)C)c(=O)c2cc1OC", "Potency": "inactive"},
      {"smiles": "COC1=CC(=O)CC(C)C12Oc1cc(OC)cc(OC)c1C2=O", "note": "(stereo unspecified)", "Potency": "inconclusive: 28.2 µM [inhibitor, single point]"},
      {"smiles": "CCCCCCCNC1=CC(=O)CC(c2ccco2)C1", "note": "(stereo unspecified)", "Potency": "inactive"},
      {"smiles": "Cc1ccc(C(=O)O/N=C/c2c(C(F)(F)F)nn(C)c2Sc2ccc(Cl)cc2)cc1", "Potency": "inactive"},
      {"smiles": "COC(=O)c1c(NC(=O)CC2SC(N)=NC2=O)sc2c1CCC(C(C)(C)C)C2", "note": "(stereo unspecified)", "Potency": "inconclusive: 22.4 µM [inhibitor, partial curve]"},
      {"smiles": "COc1cc(/C=C2/C(=O)NN(c3cccc(C)c3)C2=O)cc([N+](=O)[O-])c1O", "Potency": "inconclusive: 28.2 µM [inhibitor, partial curve, poor fit]"},
      {"smiles": "CC1Cc2ccccc2N1C(=O)CN(C)S(=O)(=O)c1cccc2cccnc12", "note": "(stereo unspecified)", "Potency": "inactive"},
      {"smiles": "Cc1ccc2nc(NC(=O)c3ccc(OCC4CCCO4)cc3)sc2c1", "note": "(stereo unspecified)", "Potency": "inconclusive: 35.5 µM [inhibitor, single point]"},
      {"smiles": "O=C1/C(=C/c2ccccc2O)SC(=S)N1Cc1cccnc1", "Potency": "inactive"},
      {"smiles": "COc1cc(/C=N/NC(=S)NCC2CCCO2)cc(OC)c1OC", "note": "(stereo unspecified)", "Potency": "inconclusive: 39.8 µM [inhibitor, single point]"},
      {"smiles": "COCCCn1c(-c2ccc(S(=O)(=O)N3CCOCC3)cc2)csc1=Nc1ccccc1", "Potency": "inactive"},
      {"smiles": "CC(=O)OCC1OC(Oc2cc(OC(C)=O)c3c(=O)cc(-c4ccc(OC(C)=O)c(OC(C)=O)c4)oc3c2)C(OC(C)=O)C(OC(C)=O)C1OC(C)=O", "note": "(stereo unspecified)", "Potency": "inconclusive: 22.4 µM [inhibitor, partial curve]"},
      {"smiles": "CCNC(=O)c1cc2c(=O)n3cccc(C)c3nc2n(Cc2ccc(C)cc2)c1=N", "Potency": "inconclusive: 3.16 µM [inhibitor, full curve]"},
      {"smiles": "COC(=O)C1=CN(CC2CCCO2)C=C(C(=O)OC)C1c1ccsc1", "note": "(stereo unspecified)", "Potency": "inconclusive: 28.2 µM [inhibitor, partial curve]"},
      {"smiles": "O=C(CSc1c2c(nc3ccccc13)CCCC2)NCc1ccco1", "Potency": "inconclusive: 39.8 µM [inhibitor, single point]"},
      {"smiles": "COc1ccc(CCNc2ncnc3c2[nH]c2cc(OC)c(OC)cc23)cc1OC", "Potency": "inconclusive: 25.1 µM [inhibitor, partial curve]"},
      {"smiles": "COc1ccc(N2CCN(C(c3nnnn3C3CCCC3)C(C)C)CC2)cc1", "note": "(stereo unspecified)", "Potency": "inconclusive: 39.8 µM [inhibitor, single point]"},
      {"smiles": "Cc1ccc(S(=O)(=O)Nc2cc(C(=O)NCCN(C)C)ccc2N2CCCCC2)cc1", "Potency": "inconclusive: 25.1 µM [inhibitor, single point]"},
      {"smiles": "Cc1cc(C)c[n+](CC(=O)c2cc3ccccc3oc2=O)c1", "Potency": "inconclusive: 35.5 µM [inhibitor, single point]"},
      {"smiles": "CCCc1nc2ccccc2c(C(=O)OC(C)C(=O)NCc2ccc3c(c2)OCO3)c1CC", "note": "(stereo unspecified)", "Potency": "inactive"},
      {"smiles": "CCCCCN(CCCCC)C(=O)[C@H](CCC(=O)O)NC(=O)c1ccc(Cl)c(Cl)c1", "Potency": "inactive"},
      {"smiles": "Oc1ccccc1C1=Nc2ncnn2C(c2ccccc2)C1", "note": "(stereo unspecified)", "Potency": "inactive"},
      {"smiles": "COc1ccc2c(c1)c(/C=N/Nc1nc3ccccc3[nH]1)c(C)n2C", "Potency": "inconclusive: 35.5 µM [inhibitor, single point]"},
      {"smiles": "CCOc1c2ccc(C(=O)NCc3ccccc3OC)cc2nn1CC", "Potency": "inconclusive: 25.1 µM [inhibitor, partial curve]"},
      {"smiles": "CC(=O)/C=C/c1ccc2ccccc2n1", "Potency": "inconclusive: 17.8 µM [inhibitor, partial curve]"},
      {"smiles": "Cc1nc2cccc(C(=O)Oc3ccc([N+](=O)[O-])cc3)c2o1", "Potency": "inconclusive: 35.5 µM [inhibitor, single point]"},
      {"smiles": "COc1cc(C(=O)NC(=S)Nc2ccc([N+](=O)[O-])cc2)cc(OC)c1OC", "Potency": "inactive"},
      {"smiles": "COc1ccc(OC)c(N=C2C(=O)Nc3ccccc32)c1", "Potency": "inactive"},
      {"smiles": "O=S(=O)(/N=S1/CC=CCN1S(=O)(=O)c1ccccc1)c1ccccc1", "note": "(stereo unspecified)", "Potency": "active: 28.2 µM"},
      {"smiles": "CNC(=O)c1[nH]cnc1C(=O)Nc1ccc(Cl)cc1", "Potency": "inconclusive: 35.5 µM [inhibitor, single point]"},
      {"smiles": "C=CCNC(=O)c1ccccc1NC(=O)c1ccc(Cl)c(S(=O)(=O)Nc2cccc(C)c2C)c1", "Potency": "inconclusive: 39.8 µM [inhibitor, single point]"},
      {"smiles": "Cc1ccc(NC(=O)C(=O)NCc2ccc(/C=C(/C#N)C(=O)NCc3cccnc3)o2)cc1C", "Potency": "inconclusive: 39.8 µM [inhibitor, single point]"},
      {"smiles": "CCOC(=O)NN1C(=O)c2ccccc2NC1c1ccccn1", "note": "(stereo unspecified)", "Potency": "inconclusive: 28.2 µM [inhibitor, partial curve]"},
      {"smiles": "O=C(c1sc2cc(F)ccc2c1Cl)N1CCN(c2ccccc2)CC1", "Potency": "inactive"},
      {"smiles": "CCOC(=O)N1CCN(CC(=O)N2c3ccccc3CC2C)CC1", "note": "(stereo unspecified)", "Potency": "inconclusive: 39.8 µM [inhibitor, single point]"},
      {"smiles": "CCCn1c(NC(=O)c2ccco2)nc2ccccc21", "Potency": "inconclusive: 39.8 µM [inhibitor, single point]"},
      {"smiles": "Cc1cc(=O)[nH]c(N2CCOCC2)n1", "Potency": "inactive"},
      {"smiles": "O=C(CN1CCCCC1)NN(Cc1ccccc1)c1ccccc1", "Potency": "inconclusive: 28.2 µM [inhibitor, single point]"},
      {"smiles": "Cc1c(C)n(CC(O)CNc2ccccc2)c2ccccc12", "note": "(stereo unspecified)", "Potency": "active: 17.8 µM"},
      {"smiles": "O=C(COC(=O)c1cc(S(=O)(=O)N2CCOCC2)ccc1O)NCCc1ccccc1", "Potency": "inconclusive: 31.6 µM [inhibitor, partial curve]"},
      {"smiles": "C=C1C2CC[C@@]3(C)C(c4ccoc4)OC(=O)C[C@@]13OC1CC(=O)C(C)(C)C(CC(=O)OC)[C@]12C", "note": "(stereo partly specified)", "Potency": "inactive"},
      {"smiles": "CCCOC(=O)c1ccc(NC(=O)C2C3C=CC(O3)C2C(=O)O)cc1", "note": "(stereo unspecified)", "Potency": "inactive"},
      {"smiles": "Cc1cccc2cc(/C=C3\\N=C(c4ccccc4)OC3=O)c(N3CCOCC3)nc12", "Potency": "inconclusive: 28.2 µM [inhibitor, single point]"},
      {"smiles": "CCCCCCc1cc2cc(C(=O)Nc3ccccc3)c(=O)oc2cc1O", "Potency": "inconclusive: 39.8 µM [inhibitor, single point]"},
      {"smiles": "Cc1nc(N2CCOCC2)c2nc(-c3ccccc3)n(CCN3CCCC3)c2n1", "Potency": "inconclusive: 31.6 µM [inhibitor, partial curve]"},
      {"smiles": "O=C(CSCSCC(=O)Nc1ccc2c(c1)OCO2)Nc1ccc2c(c1)OCO2", "Potency": "inactive"},
      {"smiles": "COCn1c(COc2ccccc2)nc2ccccc21", "Potency": "inconclusive: 39.8 µM [inhibitor, single point]"},
      {"smiles": "Cc1csc2nc(CNC(=O)C3CCCCC3)cn12", "Potency": "inactive"},
      {"smiles": "O=c1c(-c2cccc([N+](=O)[O-])c2)[n+]([O-])c2ccccc2n1O", "Potency": "active: 22.4 µM"},
      {"smiles": "CCC(=O)N(c1ccc(C(=O)O)cc1)c1nc(-c2ccc(OC)cc2)c(C)s1", "Potency": "inactive"},
      {"smiles": "CCc1ccc2[nH]c(=O)c(CN(Cc3ccc(OC)cc3)Cc3nnnn3CCOC)cc2c1", "Potency": "inconclusive: 35.5 µM [inhibitor, single point]"},
      {"smiles": "CC(C)(C)C(=O)Nc1nc(C2CCCN2S(=O)(=O)c2ccc(Cl)cc2)cs1", "note": "(stereo unspecified)", "Potency": "inconclusive: 39.8 µM [inhibitor, single point]"},
      {"smiles": "Cc1nc(C)c(-c2nnc(-c3ccc(C(C)(C)C)cc3)o2)cc1C(=O)NN", "Potency": "inconclusive: 10 µM [inhibitor, partial curve]"},
      {"smiles": "CCN(Cc1ccncc1)Cc1c(O)ccc2ccccc12", "Potency": "inconclusive: 28.2 µM [inhibitor, partial curve]"},
      {"smiles": "O=C(Nc1ccc(F)cc1)C1CCN(c2nnnn2-c2ccccc2)CC1", "Potency": "inactive"},
      {"smiles": "CCc1nnc2sc(-c3ccc(NC(=O)c4ccc5c(c4)OCCO5)cc3)nn12", "Potency": "inconclusive: 35.5 µM [inhibitor, single point]"},
      {"smiles": "Cc1nc(NC(=O)c2ccccc2)sc1-c1csc(Nc2ccc(Cl)cc2Cl)n1", "Potency": "inconclusive: 25.1 µM [inhibitor, single point]"},
      {"smiles": "O=CN1CCN(C(C(=O)NC2CCCCC2)c2cc3c(cc2[N+](=O)[O-])OCO3)CC1", "note": "(stereo unspecified)", "Potency": "inconclusive: 39.8 µM [inhibitor, single point]"},
      {"smiles": "O=C1C(=O)c2ccccc2C(O)=C1c1ccccc1F", "Potency": "inactive"},
      {"smiles": "O=C(NCc1ccco1)c1ccccc1-c1nc(-c2ccc(F)cc2)no1", "Potency": "inactive"},
      {"smiles": "c1ccc(Cn2c(NCc3ccncc3)nc3ccccc32)cc1", "Potency": "inactive"},
      {"smiles": "O=C(CCSc1nnc2ccc3ccccc3n12)Nc1ccc(F)cc1", "Potency": "inconclusive: 22.4 µM [inhibitor, partial curve]"},
      {"smiles": "CC1CN(c2nc3ccccn3c(=O)c2/C=C(\\C#N)C(N)=O)CC(C)O1", "note": "(stereo unspecified)", "Potency": "inconclusive: 14.1 µM [inhibitor, partial curve]"},
      {"smiles": "CC(C)n1cnc2cc(NCc3ccccn3)ccc21", "Potency": "inconclusive: 28.2 µM [inhibitor, partial curve]"},
      {"smiles": "CCN(CC)c1ccc(/C=N/NC(=S)NCc2ccc(OC)cc2)cc1", "Potency": "inconclusive: 28.2 µM [inhibitor, partial curve]"},
      {"smiles": "N#Cc1ccc(C23CC4CC(CC(C4)C2)C3)[nH]c1=O", "Potency": "inconclusive: 20 µM [inhibitor, partial curve]"},
      {"smiles": "N=c1oc2ccc3ccccc3c2cc1-c1nnc2n1CCCCC2", "Potency": "inconclusive: 28.2 µM [inhibitor, partial curve]"}
    ]}
  ]
}
